# Reference: PubChem BioAssay AID1745853 (National Center for Advancing Translational Sciences (NCATS), 2022)
# This is one part of the list. The main result of the screen is listed elsewhere. These columns were measured beside it and carry no call.
# Legend:
# Assay in all cases: Primary Screen for Target Class Profiling of Small Molecule Inhibitors of Methyltransferases
# [1] = molecular target: Glycine N-methyltransferase (Homo sapiens) (UniProt Q14749); details: purified enzyme, MTase-Glo SAH luminescence; measured here: GNMT inhibition; at 40 µM; stronger effect = lower value
# How it was run: (§1)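 Each enzyme was reacted with SAM and its substrate, with compounds tested once at 40 uM; SAH formed was read by MTase-Glo luminescence.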
# [2] = molecular target: Guanidinoacetate N-methyltransferase (Homo sapiens) (UniProt Q14353); details: purified enzyme, MTase-Glo SAH luminescence; measured here: GAMT inhibition; at 40 µM; stronger effect = lower value
# How it was run: as §1
# [3] = molecular target: Histamine N-methyltransferase (Homo sapiens) (UniProt P50135); details: purified enzyme, MTase-Glo SAH luminescence; measured here: HNMT inhibition; at 40 µM; stronger effect = lower value
# How it was run: as §1
# [4] = molecular target: Nicotinamide N-methyltransferase (Homo sapiens) (UniProt P40261); details: purified enzyme, MTase-Glo SAH luminescence; measured here: NNMT inhibition; at 40 µM; stronger effect = lower value
# How it was run: as §1
# [5] = molecular target: Phenylethanolamine N-methyltransferase (Homo sapiens) (UniProt P11086); details: purified enzyme, MTase-Glo SAH luminescence; measured here: PNMT inhibition; at 40 µM; stronger effect = lower value
# How it was run: as §1
# % is set by controls: 0 for no effect and ±100 for the full control effect.
Compound,"activity change, negative = inhibition [1]","activity change, negative = inhibition [2]","activity change, negative = inhibition [3]","activity change, negative = inhibition [4]","activity change, negative = inhibition [5]"
CCc1cc2c(cc3n2CC(C(=O)NC2CCCCCCC2)(c2ccccc2)N(Cc2ccccc2)C3=O)s1 (stereo not drawn),4.83%,5.24%,6.13%,-10.3%,-2.86%
O=C1NC2(CCCN(C(=O)c3ccc(F)cc3)C2)Oc2ccccc21 (stereo not drawn),-9.26%,-7.72%,0.019%,-11.7%,-7.88%
COc1cccc2cc(-c3nc(C4CCC(C(=O)O)CC4)n4ncnc(N)c34)[nH]c12 (stereo not drawn),-0.385%,0.127%,4.75%,-16%,-1.42%
CC(=O)OCC(=O)[C@@]1(O)[C@H](C)C[C@H]2[C@@H]3CCC4=CC(=O)C=C[C@]4(C)[C@@]3(F)[C@@H](O)C[C@@]21C,-3.25%,0.86%,5.34%,-14.9%,1.88%
CCCC1(c2ccccc2)NC(=O)N(CC(=O)N(C)Cc2c(F)cccc2Cl)C1=O (stereo not drawn),-11.4%,-17.9%,-10.1%,-20.5%,-25%
COc1ccc(OC)c(CNC(=O)c2cccc3c2CCN3C(=O)c2ccc(F)cc2)c1,-4.79%,-7.31%,-4.21%,-10.3%,-5.85%
O=C(Nc1ccccc1F)N1CC(Oc2ccc(-c3noc(-c4ccccc4)n3)cc2)C1,-1.5%,-4.18%,-1.88%,-2.24%,-1.59%
CCc1cc2c(cc3n2CC(C)(C(=O)NC2CCCCC2)N(CCc2ccc(Cl)cc2)C3=O)s1 (stereo not drawn),-5.21%,4.51%,-6.51%,-4.18%,-6.9%
CCC1Oc2ccc(NC(=O)CC(C)(C)C)cc2CN(Cc2ccccc2F)C1=O (stereo not drawn),-7.95%,-5.74%,-3.59%,-16.6%,2.73%
O=C(CCc1nnc2n(Cc3ccccc3Cl)c(=O)c3ccccc3n12)NCc1ccc2c(c1)OCO2,6.45%,0.67%,4%,1.17%,-2.05%
O=C(NCCc1ccccc1)Nc1cccn2ncnc12,-5.2%,-2.45%,-5.53%,-3.65%,-44.7%
O=C(C1CCCN1C(=O)c1ccccc1)N1CCC(c2ccccc2)CC1 (stereo not drawn),-2.52%,-1.46%,0.841%,0.075%,1.74%
Cc1ccc(CN2C(=O)c3nc4ccccc4n3CC2(C)C(=O)NCCC(C)C)cc1 (stereo not drawn),-3.48%,0%,2.33%,6.92%,4.24%
CC(=O)O[C@@H]1C[C@]2(C)[C@@]3(CCC4[C@@]5(C)CC[C@H](O[C@@H]6O[C@H](C(=O)O)[C@@H](O)[C@H](OC7OC(CO)C(O)C(O)[C@H]7O[C@@H]7O[C@@H](C)[C@H](O)[C@@H](O)[C@H]7O[C@@H]7OC[C@](O)(CO)[C@H]7O)[C@H]6OC6OC(CO)C(O)C(O)C6O)C(C)(C)C5CC[C@]42C)OC[C@@]12CCC(C)(C)CC23 (stereo partly drawn),1.15%,1.65%,9.93%,-9.64%,-5.7%
COc1ccc([C@H]2C[C@@H](O)[C@@H](O)[C@@H]2NS(=O)(=O)c2ccc(Cl)cc2)cc1,-9.12%,-8.86%,-4.89%,-5.92%,-3.32%
COc1cccc(N2CCN(C(=O)c3noc(-c4ccc(C)cc4)n3)CC2)c1,-4.34%,1.31%,-1.43%,-5.14%,-1.84%
COC(=O)c1cc2n(n1)CC(C)(C(=O)NC1CCCCC1)N(c1ccc(C)c(Cl)c1)C2=O (stereo not drawn),6.04%,1.82%,3.98%,9.7%,9.47%
O=C(C1CCC1)N1CCC(Cc2nncn2Cc2ccccc2)CC1,-2.16%,-3.36%,-0.699%,-7.15%,-4.95%
CCCn1c(=O)c2ccc(C(=O)NC(C)CC)cc2n2c(=O)n(CC(=O)c3ccc(Cl)cc3)nc12 (stereo not drawn),9.84%,0.27%,4.05%,1.49%,6.92%
CC1(C)CCC[C@]2(C)[C@H]3CC(=O)O[C@]3(C)CC[C@@H]12,-6.98%,3.11%,-5.73%,-39.2%,-23.6%

Compound,"activity change, negative = inhibition [1]","activity change, negative = inhibition [2]","activity change, negative = inhibition [3]","activity change, negative = inhibition [4]","activity change, negative = inhibition [5]"
Fc1ccc(-c2nc(-c3ccccc3F)[nH]c2-c2ccncc2)cc1,-21.3%,-6.52%,-19.8%,-22.7%,-7%
COCCn1c(=O)c2c(n1Cc1ccccc1)CN(C(=O)Cc1cccc(F)c1)CC2,-0.164%,-2.3%,-1.41%,-5.68%,-1.68%
CC(C)CN(CCCN1C(=O)c2cc3occc3n2CC1(C)C(=O)NC1CCCCCC1)CC(C)C (stereo not drawn),-3.67%,4.65%,-1.15%,5.13%,-2.88%
COc1ccc(S(=O)(=O)Nc2c(C)cc(C)cc2C)cc1,-2.84%,-8.22%,5.18%,-34%,-3.46%
CC(c1c[nH]c2ccccc12)C(O)C(=O)O (stereo not drawn),2.31%,5.01%,6.17%,-6.89%,5.54%
CSc1ccc(CCN2C(=O)CSc3c(c4ccccc4n3C)C2C(=O)NCc2ccccc2)cc1 (stereo not drawn),8.58%,3.97%,3.9%,0.128%,6.75%
COc1cc2c(cc1O)CC[C@H]1[C@@H]2CC[C@]2(C)[C@H](O)CC[C@@H]12,-13.6%,-13.8%,-15.1%,-21.6%,-13.9%
CCOC(=O)CCNC(=O)N1CCCC(c2nc(-c3cnccn3)no2)CCNC(=O)CC1 (stereo not drawn),-3.27%,-5.68%,-0.395%,-6.34%,-2.59%
O=C(CSc1nnc2n(Cc3ccccc3)c(=O)c3ccccc3n12)Nc1ccc(F)cc1F,-3.92%,2.52%,8.94%,-1.93%,1.59%
CCOC(=O)c1cc2n(n1)CC(C)(C(=O)NC1CCCCCC1)N(c1ccc(C)c(C)c1)C2=O (stereo not drawn),-4.55%,0.691%,-4.38%,3.05%,4.2%
O=C(c1ccc(Cl)cc1)N1CCC2(CC1)CC(c1ccccc1)=NO2,-7.83%,-1.4%,0.268%,-5.13%,0.759%
C#CCNC(=O)[C@H]1O[C@H](CCN(C)CC#C)CC[C@@H]1O,-1.27%,-2.38%,-0.244%,-5.27%,0.672%
CC(C)Cn1c(=O)c2cc(F)ccc2n2c(SCc3ccc(F)cc3)nnc12,3.88%,5.18%,11.5%,0.045%,5.99%
CC(=O)Nc1c2n(c3ccc(F)cc13)CC(C)(C(=O)NCCC(C)C)N(Cc1ccccc1F)C2=O (stereo not drawn),5.34%,0%,6.59%,9.78%,4.06%
CCCCCN(CCCCC)C(=O)C(CCC(=O)O)NC(=O)c1ccc(Cl)c(Cl)c1 (stereo not drawn),-2.98%,10.2%,6.93%,-15%,-3.83%
CCCN1C(=O)c2cc(C(=O)NCc3ccc(C)cc3)nn2CC1(C)C(=O)NC1CCCC1 (stereo not drawn),-1.73%,3.21%,-0.766%,1.21%,0.202%
Cc1cccc(CCNC(=O)CCc2nnc3n(CCc4ccccc4)c(=O)c4ccccc4n23)c1,-7.84%,0%,8.14%,-5%,0.494%
Cc1cc(Nc2cccc(C(F)(F)F)c2)nc2ccc(NC(=O)Cc3ccc(Cl)cc3)cc12,,-11.4%,,-25.3%,-5.83%
CC(C)Oc1ccc(CN2C(=O)c3cc4sccc4n3CC2(C)C(=O)NC2CCCCCC2)cc1 (stereo not drawn),-3.25%,3.33%,3.75%,2.73%,-2.67%
C=C[C@H](/C=C\c1ccc(O)cc1)c1ccc(O)cc1,-3.91%,-4.58%,-1.64%,-18.1%,0.541%

Compound,"activity change, negative = inhibition [1]","activity change, negative = inhibition [2]","activity change, negative = inhibition [3]","activity change, negative = inhibition [4]","activity change, negative = inhibition [5]"
Cc1cc(N2CCOCC2)cc2[nH]c(-c3c(NC[C@@H](O)c4cccc(Cl)c4)cc[nH]c3=O)nc12,-11%,6.82%,-8.82%,-20.6%,0.116%
C[S+](=O)([O-])N1CC2(CCN(Cc3c[nH]c4ccccc34)CC2)Cc2ccccc21,-10.1%,-7.32%,-25.7%,-17.4%,-8.51%
Cn1cnnc1CC1CCN(C(=O)CN2CC(c3ccccc3)CC2=O)CC1 (stereo not drawn),0.432%,0.29%,2.21%,-2.43%,-2.56%
CCCN1C(=O)c2cc(C(=O)NCc3ccc(F)cc3)nn2CC1(C)C(=O)NC1CCCC1 (stereo not drawn),0.069%,3.65%,2.42%,-1.62%,-0.896%
CC(C)NCC(O)c1ccc(O)c(O)c1 (stereo not drawn),-21.9%,-3.25%,-1.93%,-12.9%,-3.38%
O=C1NC2(CN(C(=O)c3ccccc3)C2)Oc2ccccc21,-6.31%,-2.22%,2.5%,-8.24%,1.77%
CCCn1c(=O)c2ccc(C(=O)NC(C)CC)cc2n2c(=O)n(Cc3ccc(C)cc3)nc12 (stereo not drawn),1.42%,0%,2.23%,-2.81%,3.14%
CC1(C(=O)NCc2ccccc2)Cn2c(cc3ccccc32)C(=O)N1Cc1cccc(Br)c1 (stereo not drawn),4.87%,0.354%,4.07%,2.01%,-0.748%
CC1CCC2C(C)(C)C(O)C(O)CC2(C)C12Cc1c(O)cc(CO)c(C=O)c1O2 (stereo not drawn),-1.81%,0.816%,11.6%,-12.3%,-8.93%
Cc1ccccc1OCc1nc(C2CN(C(=O)NC(C)C)C2)no1,-0.243%,0.849%,0.847%,-4.35%,2.6%
CC(C)Cn1c(=O)c2cc(F)ccc2n2c(SCC(=O)Nc3ccc(Cl)cc3)nnc12,3.69%,0%,7.13%,-5.59%,3.83%
COc1ccc(-n2c(=O)[nH]c3cccnc32)cc1OC,-11.8%,-8.44%,-3.55%,-13%,1.38%
NCCSSCCN,-5.94%,7.9%,-11.9%,-2.02%,6.97%
CC1CCC(NC(=O)C2(C)Cn3c(cc4occc43)C(=O)N2Cc2ccccc2Cl)CC1 (stereo not drawn),-7.37%,-1.91%,-1.7%,-15.9%,-4.98%
CC(C)(C)c1cc(C[C@H]2CNCC[C@H]2CC(=O)N2CCC(Cc3ccccc3)CC2)no1,-3.17%,0.666%,-4.73%,-18.5%,14%
CN(C)C(=O)CNC(=O)c1cccc(S(=O)(=O)NCCn2ccnc2)c1,-4.97%,-4.66%,-2.73%,-7.65%,5.2%
Cc1cc(NC2CCCCC2)nc(-n2nc(C)cc2C)n1,-5.67%,6.07%,-2.9%,-7.09%,7.61%
C=CC1C(OC2OC(CO)C(O)C(O)C2O)OC=C(C(=O)OC)C1CC1CC(=O)CC(CCc2ccc(O)cc2)O1 (stereo not drawn),-1.95%,-5.42%,-1.1%,-12.9%,-11.9%
CC(=O)Nc1c2n(c3ccccc13)CC(C)(C(=O)NCCC(C)C)N(Cc1ccc(F)cc1)C2=O (stereo not drawn),-0.405%,2.61%,5.11%,8.12%,4.25%
